From the supplement of paper PMC10126150 come the findings set out here.

In this data set the test system is ATP. The data set is described as follows: switch fluorescence ratio, 500 uM ATP over buffer (Cy3 cluster intensity, sum of 5 cycles each) (fold (ratio)); higher = stronger signal-on switching upon ATP binding; sequences stand for … in TCGTCGGCAGCGTCAGATGTGTATAAGAGACAGTTTTTTTTTTTTTTTTTTTTTTTTT…TC. The following applies: aptamer strand: ATP DNA aptamer (quencher-CACCTGGGGGAGTATTGCGGAGGAAGG + anchor), 100 nM annealed; ATP concentration: 500 uM; one replicate. The method in brief: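 Cy3-labelled switching-strand clusters on a modified Illumina MiSeq flow-cell were annealed to 100 nM quencher-labelled ATP aptamer and imaged first in selection buffer, then after 15 min with 500 uM ATP at 22 °C. NaOH stripping and re-annealing separated each of five buffer/ATP cycles, and clusters outside 100-1000 RFU were excluded. The fluorescence ratio sums target-cycle Cy3 intensity over buffer-cycle Cy3 intensity per cluster and averages it per switch-domain sequence.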

Sequences with one replicate were seen in a single cluster, so their values are uncertain.
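Further: ATP exposure 15 min at 22 °C before imaging.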

Turning to TTAGTTAGGC, the switch fluorescence ratio worked out at 1.01.
The value for GTGAGTTAG was 0.989; that for CGTAGCTCCG was 1.11; that for GCTTGTATAC was 1.16.
For CAACTAAGGA the value was 1.02; for TACGTGCGCA, 1.08.
For AATATATCAG the value was 0.967; for ACGAGTTA, 0.966; for GCCTGAGTTG, 1.
On to CGGTCCAAAG, for which the switch fluorescence ratio is 0.98.
Turning to AACCAGGGG, the switch fluorescence ratio worked out at 1.31.
Regarding AGATTCGTGA, the switch fluorescence ratio came out at 0.971.
In the case of TCTTTTAGCA, the switch fluorescence ratio was found to be 1.01.
For GCAGGATGGC the value was 1.1.
CGTCCTCGGC: the switch fluorescence ratio is 1.26.
Consider TGTTCGCGCG, for which the switch fluorescence ratio turned out to be 0.99.
For CTCCCAAGGA the value was 2.62; for ATGTCTTTAG, 0.981; for GTTATTAAGG, 1.01.
For AATCGAGTCG the value was 1; for TTATATGGAC, 1.03.
On to AAGGCACTAG, for which the switch fluorescence ratio turned out to be 0.995.
For TGATCTAAAA the value was 0.995; for ACTGCTAGAC, 2.94.
As for GACTAGCAGC, the switch fluorescence ratio came out at 1.11.
Turning to TTATGGACAG, the switch fluorescence ratio stood at 0.959.
Turning to AAACGCTTAC, the switch fluorescence ratio was 2.47.
AGCTCTGAAC: the switch fluorescence ratio turned out to be 1.04.
The value for AGCAGGCTAG was 1.01; that for GACAGTGAT was 1.03.
Consider ATCCTTCAG, for which the switch fluorescence ratio came out at 1.05.
On to ATTCATTTAA, for which the switch fluorescence ratio was 0.914.
The value for AACAGGGTC was 0.972.
As to ATTAGTAC, the switch fluorescence ratio turned out to be 0.997.
Turning to GGCGATCTCC, the switch fluorescence ratio is 1.6.
Take TAAAAAAAGT: the switch fluorescence ratio was determined as 1.01.
The value for GTCAGTATGG was 0.962; that for AGACCAGGCA was 1.02; that for CGGGGGCGTA was 0.97.
For AGCAACGGGC the value was 1.03.
Regarding TTAACATTCG, the switch fluorescence ratio is 1.02.
ATGTTGCGGA: the switch fluorescence ratio stood at 0.99.
The value for CTGTAGTTAG was 1.08.
Turning to ATAAACTAAA, the switch fluorescence ratio is 0.97.
For GCCAGAGGCG the value was 0.99; for GCGCGTACCT, 1.05.
For GGGCCTATGC the value was 0.985.
As for CCGTTCCGGC, the switch fluorescence ratio worked out at 1.07.
For GACATCTCTG the value was 1.09; for TCATAGTTTC, 1.03; for TTATCAATT, 0.996.
The value for GCTGGACGTC was 1.04.
With GACACTAAG, the switch fluorescence ratio is 1.1.
The value for GTTATCCAGC was 1.01; that for CCGGTATGCG was 0.993; that for CCTAGGGATT was 1.04.
Turning to CCTATTCACT, the switch fluorescence ratio came to 1.07.
Turning to TGTTTAGTAA, the switch fluorescence ratio was found to be 0.994.
For TAAAGCCAGC, the switch fluorescence ratio was 0.95.
Turning to CGAGTAGTAC, the switch fluorescence ratio was determined as 1.29.
On to TAGGCAATAA, for which the switch fluorescence ratio was 3.34.
Take CGCCTGCGGA: the switch fluorescence ratio stood at 1.03.
The value for TGAAGGAACA was 1.04.
For ATCCCAAAGG the value was 1.11.
Turning to GAAGCGCCAG, the switch fluorescence ratio is 0.998.
The value for TAAATAGCAA was 1.46.
Consider TATCGTTAG, for which the switch fluorescence ratio is 0.966.
The value for GCAACGAATT was 0.994; that for TGATTCCGTC was 1.06.
As for ATGATCTACA, the switch fluorescence ratio came to 0.985.
In the case of ATGTATTTCA, the switch fluorescence ratio was 0.988.
On to AACCCCCCAA, for which the switch fluorescence ratio stood at 1.19.
Regarding GCAATGGGGA, the switch fluorescence ratio stood at 1.13.
Take TTATGACGG: the switch fluorescence ratio is 0.958.
Take AGCCGGTCGA: the switch fluorescence ratio was 1.01.
For TCCGATATA the value was 1.04; for CAGTCTAACT, 0.992.
For TGGTCACTTA the value was 0.979; for AGCAGTCATA, 0.995; for AAATATAGGG, 0.951.
As for TCAGGGAGAA, the switch fluorescence ratio came out at 0.975.
AGCCTTTCAG: the switch fluorescence ratio worked out at 0.99.
For the sequence TCTTATACAT, the switch fluorescence ratio worked out at 1.04.
As for TGAAGCTTGC, the switch fluorescence ratio is 1.13.
The value for ACACGGTGTA was 1.03.
GCCTGAAGCA: the switch fluorescence ratio amounted to 0.995.
The value for GAGAATGAAG was 0.973; that for ACGGATTAAA was 1.01.
The value for CTGGAGGGTA was 0.999; that for GATTCTGAGT was 0.985.
For TGAAAAAGGA the value was 1; for GTCTGGCCGA, 1.01; for ATACGTTCT, 0.997.
For the sequence CGTGCTCGTA, the switch fluorescence ratio came to 0.992.
For the sequence GCTATTCAC, the switch fluorescence ratio was 1.12.
As to TTTCCCTCAC, the switch fluorescence ratio amounted to 1.05.
For GCCTATGTGT, the switch fluorescence ratio is 1.03.
For GTGAAGCGGA the value was 0.996; for CAGAAATCGT, 1.02; for TTAATATCTC, 1.16.
Turning to TCTGAGGGAC, the switch fluorescence ratio amounted to 1.
The value for AAAGGAAAAA was 1.01; that for ATTGACGAT was 1; that for TATCAGAGAG was 0.98.
CAAGCGGCTG: the switch fluorescence ratio is 1.04.
For GAGGCATTTA the value was 1.09; for GCAACCCGCT, 1.11.
The value for GAACGATTTT was 0.907; that for TCTCCAGGAG was 1.26; that for ATTCACCTCG was 1.02.
CGATATAGGT: the switch fluorescence ratio was found to be 1.01.
Consider TCCGTGCCTG, for which the switch fluorescence ratio turned out to be 0.981.
For CCGATACGGA the value was 1.03; for GTTCAGCAGT, 1.08; for ACATAAGGAT, 1.08.
Take TGTATGTCTG: the switch fluorescence ratio worked out at 1.03.
The value for AAATGAACGT was 0.968; that for CGGAACATCT was 1.02; that for ATTGTAGATA was 0.973.
With ACACTTATAA, the switch fluorescence ratio came to 1.01.
